# From a collection of fitness landscapes (doi:10.1016/j.celrep.2020.107928)
# The full ranking holds about 81,000 sequences; the median of “one-hybrid fitness for binding NBS DNA” is about -0.1, and the highest 2% start at about 0.36. This is one part of the list.
# B1: Caulobacter ParB omega fusion; a variant is named by its letters at X, in order, B8GW30 (parent)
# chain: MESVVVGEPGMSEGRRGLGRGLSALLGEVDAAPAQAPGEQLGGSREAPIEILQRNPDQPRRTFREEDLEDLSNSIREKGVLQPILVRPSPDTAGEYQIVAGERAWRAAQRAGLKTVPIMVRELDDLAVLEIGIIENVQRADLNVLEEALSYKVLMEKFERTQENIAQTIGKSXSHVANXMRLLXLPDEVQSYLVSGELTAXHARAIAAAADPVALAKQIIEGGLSVRETEALARKAPNLSAGKSKGGRPPRVKDTDTQALESDLSSVLGLDVSIDHRGSTGTLTITYATLEQLDDLCNRLTRGI
# Variants of: B1
# Experiment: one-hybrid fitness for binding NBS DNA (the Noc-binding site; scaled: cognate 1, non-cognate 0); higher = stronger binding
# Details: with NBS DNA site
# How it was run: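 Fitness is the rescaled log change in variant-to-wild-type read ratio, measured by Illumina sequencing of plasmids before and after bacterial one-hybrid selection. The scale puts cognate at 1 and non-cognate at 0. Selection of Caulobacter ParB libraries, four specificity codons randomised, took place in E. coli USO with a HIS3 reporter, site 19 bp from the promoter, over 48 hours at 37°C on M9-minus-histidine with 0.1 mM IPTG and 5 mM 3-AT.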
row,Variant,one-hybrid fitness for binding NBS DNA
1,LACR,≤ 0.2
2,ARGD,≤ 0.2
3,SCVC,≤ 0.2
4,DIHS,≤ 0.2
5,DGTG,≤ 0.2
6,WQTS,≤ 0.2
7,FTAT,≤ 0.2
8,RYHC,≤ 0.2
9,FLWA,≤ 0.2
10,NPPW,≤ 0.2
11,KPPQ,≤ 0.2
12,CSTR,≤ 0.2
13,AKET,≤ 0.2
14,EPGH,≤ 0.2
15,QMLN,≤ 0.2
16,EVRC,≤ 0.2
17,RMKL,≤ 0.2
18,RIWW,≤ 0.2
19,QEIS,≤ 0.2
20,PEAT,≤ 0.2
21,EPQS,≤ 0.2
22,WSMI,≤ 0.2
23,QITY,≤ 0.2
24,RREC,0.316
25,AKKF,≤ 0.2
26,TNAL,≤ 0.2

row,Variant,one-hybrid fitness for binding NBS DNA
1,HIRQ,≤ 0.2
2,QYRK,0.36
3,SVQI,≤ 0.2
4,WWPS,≤ 0.2
5,RKVL,≤ 0.2
6,IMMR,≤ 0.2
7,IPMS,≤ 0.2
8,RKGS,0.576
9,LNHM,≤ 0.2
10,GHMR,≤ 0.2
11,DCWG,≤ 0.2
12,YTAH,≤ 0.2
13,EEAT,≤ 0.2
14,MARH,≤ 0.2
15,STTM,≤ 0.2
16,ERSE,≤ 0.2
17,RGDF,≤ 0.2
18,TTYR,≤ 0.2
19,WDNV,≤ 0.2
20,SRHM,≤ 0.2
21,PKLV,≤ 0.2
22,CTKG,≤ 0.2
23,RFYY,≤ 0.2
24,CSKM,≤ 0.2
25,TSKK,≤ 0.2
26,TDRN,≤ 0.2

row,Variant,one-hybrid fitness for binding NBS DNA
1,AKKG,≤ 0.2
2,QFSI,≤ 0.2
3,CLGR,≤ 0.2
4,PITE,≤ 0.2
5,WQAT,≤ 0.2
6,DQRA,≤ 0.2
7,SSMG,≤ 0.2
8,TVHN,≤ 0.2
9,SSYV,≤ 0.2
10,TNCR,≤ 0.2
11,MGDY,≤ 0.2
12,YLRC,≤ 0.2
13,PHYC,≤ 0.2
14,RVAS,0.358
15,MAWF,≤ 0.2
16,MRQE,≤ 0.2
17,YEEG,≤ 0.2
18,VEKC,≤ 0.2
19,VPNY,≤ 0.2
20,HTQS,≤ 0.2
21,GHVG,≤ 0.2
22,YVFG,≤ 0.2
23,HYCF,≤ 0.2
24,EGHE,≤ 0.2
25,CREK,≤ 0.2
26,EAIW,≤ 0.2

row,Variant,one-hybrid fitness for binding NBS DNA
1,KAKD,≤ 0.2
2,LNWR,≤ 0.2
3,HYPP,≤ 0.2
4,NGHS,≤ 0.2
5,RNGM,≤ 0.2
6,PKAS,≤ 0.2
7,QITT,0.314
8,MTCR,≤ 0.2
9,AHGW,≤ 0.2
10,LSYN,≤ 0.2
11,VVRL,≤ 0.2
12,KDHP,≤ 0.2
13,LAIH,≤ 0.2
14,ACLL,≤ 0.2
15,HGHI,≤ 0.2
16,RLHV,≤ 0.2
17,QFMT,≤ 0.2
18,PQAN,≤ 0.2
19,INSI,≤ 0.2
20,MNLQ,≤ 0.2
21,MART,≤ 0.2
22,YNVL,≤ 0.2
23,ASDL,≤ 0.2
24,KDIG,≤ 0.2
25,QLYF,≤ 0.2
26,LLKS,≤ 0.2

row,Variant,one-hybrid fitness for binding NBS DNA
1,QMPA,≤ 0.2
2,ENTW,≤ 0.2
3,FKGR,≤ 0.2
4,HYYI,≤ 0.2
5,LANA,≤ 0.2
6,ALVN,≤ 0.2
7,QWLH,≤ 0.2
8,LTYT,≤ 0.2
9,GCDL,≤ 0.2
10,TLTT,≤ 0.2
11,GPTQ,≤ 0.2
12,THAT,≤ 0.2
13,THPL,≤ 0.2
14,DNLS,≤ 0.2
15,NDSW,≤ 0.2
16,IQIR,≤ 0.2
17,RVGK,≤ 0.2
18,WSLC,≤ 0.2
19,RVGH,≤ 0.2
20,FRKM,≤ 0.2
21,AYFQ,≤ 0.2
22,WTLT,≤ 0.2
23,CFPC,≤ 0.2
24,SNYP,≤ 0.2
25,VFRT,≤ 0.2
26,HVTW,≤ 0.2

row,Variant,one-hybrid fitness for binding NBS DNA
1,PRYG,≤ 0.2
2,SIWR,≤ 0.2
3,TERV,≤ 0.2
4,SKHN,≤ 0.2
5,GQIC,≤ 0.2
6,TGWC,≤ 0.2
7,MGAT,≤ 0.2
8,QQSK,≤ 0.2
9,PQWT,≤ 0.2
10,GKRG,≤ 0.2
11,SESY,≤ 0.2
12,HSLG,≤ 0.2
13,QTTA,0.399
14,PYPF,≤ 0.2
15,ERVT,≤ 0.2
16,FASS,≤ 0.2
17,FEFD,≤ 0.2
18,GAPR,≤ 0.2
19,VSVA,≤ 0.2
20,QRGY,0.571
21,FINL,≤ 0.2
22,STIF,≤ 0.2
23,FLTP,≤ 0.2
